Measurements published in PubChem BioAssay AID1468 (National Center for Advancing Translational Sciences (NCATS), 2008).
Where “and” joins values, the source holds several entries; their conditions need not be identical. Equal entries are not always repeated. The campaign covered roughly 280,000 compounds. About 1,100 (0.39%) were called active. This list was built around the results that the source calls inconclusive (neither active nor inactive); the mix of calls is not that of the screen. Calls follow the shape of the dose curve; as a rule, active = well fitted inhibition curve with a large enough effect; inconclusive = small, poorly fitted or top-dose-only effect, or effect the other way; inactive = flat fitted curve, though single readings scatter. A potency beside an inconclusive call is a rough fit, not a confirmed value.

target: Microtubule-associated protein tau (Homo sapiens) (UniProt P10636); assay: qHTS for Inhibitors of Tau Fibril Formation, Fluorescence Polarization; conditions: K18 P301L tau heparin fibrillization, Alexa594 FP, 6 h; series mostly up to 57.7 µM; activity, negative = inhibition: at the top concentration; also: nearly all actives have a fitted effect of over 55% in size
Outline: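 Heparin (20 uM) drove fibril formation of recombinant tau K18 P301L, 15 uM unlabeled with 0.24 uM Alexa 594 label, for 6 hr at 37 C in 100 mM sodium acetate pH 7. Fluorescence polarization (555/632 nm) read 1 hr after 30 uM ThT.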
% is scaled to controls: 0 for no effect and ±100 for the full control effect; potency is read from the fitted curve at half-maximal effect; tags tell the direction and shape of the fitted curve.

Sequence of UniProt P10636 (P10636 whole entry, looked up): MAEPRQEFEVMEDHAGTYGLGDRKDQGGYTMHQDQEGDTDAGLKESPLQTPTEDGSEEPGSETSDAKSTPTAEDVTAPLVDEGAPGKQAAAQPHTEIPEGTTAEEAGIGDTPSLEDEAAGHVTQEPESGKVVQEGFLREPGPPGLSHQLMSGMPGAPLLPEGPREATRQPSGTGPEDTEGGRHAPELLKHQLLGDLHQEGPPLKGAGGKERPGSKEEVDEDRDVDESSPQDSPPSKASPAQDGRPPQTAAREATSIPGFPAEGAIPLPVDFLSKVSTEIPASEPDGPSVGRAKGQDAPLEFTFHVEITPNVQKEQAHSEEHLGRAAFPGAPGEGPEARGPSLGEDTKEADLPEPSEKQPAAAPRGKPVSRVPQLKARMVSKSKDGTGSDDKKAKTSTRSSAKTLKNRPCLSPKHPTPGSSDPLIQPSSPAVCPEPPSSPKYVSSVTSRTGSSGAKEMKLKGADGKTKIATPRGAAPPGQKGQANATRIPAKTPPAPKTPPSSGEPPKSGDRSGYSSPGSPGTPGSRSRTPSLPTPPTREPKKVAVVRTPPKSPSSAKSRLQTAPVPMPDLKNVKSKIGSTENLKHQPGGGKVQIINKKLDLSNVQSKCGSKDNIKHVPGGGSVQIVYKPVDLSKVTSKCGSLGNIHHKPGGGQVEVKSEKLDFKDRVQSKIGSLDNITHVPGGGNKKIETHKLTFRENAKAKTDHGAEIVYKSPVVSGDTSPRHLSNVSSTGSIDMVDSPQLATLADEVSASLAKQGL

SMILES | Potency | activity, negative = inhibition
CN(CCO)c1nc(N)c2c(N)nc3c(c2c1C#N)CC(=O)N3C1CCCC1 | inconclusive: 25.1 µM [inhibitor, partial curve] | –
COc1cc(/C=C(\C#N)C(=O)N2CCc3ccccc32)ccc1O | inconclusive: 20 µM [activator, single point] | –
COc1ccc(Cc2noc(CN3CCNC(=O)CC3)n2)cc1OC | inconclusive: 5.01 µM [inhibitor, single point] | –
Oc1ccc(/C=N/Nc2ccnc3cc(Cl)ccc23)c(O)c1 | inconclusive: 3.55 µM [activator, full curve, poor fit] | –
Cc1ccc(C(=O)Nc2ccc3c(c2)N(C)C(=O)c2ccccc2S3)cc1 | inconclusive: 39.8 µM [inhibitor, single point] | –
S=c1[nH]nc(Cc2cccs2)n1-c1ccccc1Cl | – | inactive: 3.8%
O=C(CSc1nc2cc3ccccc3cc2[nH]1)Nc1ccc(F)cc1 | inconclusive: 15.8 µM [inhibitor, partial curve] and inconclusive: 14.1 µM [inhibitor, partial curve] | –
Cc1ccc(/C=C(\C#N)c2nc3ccccc3[nH]2)s1 | inconclusive: 35.5 µM [inhibitor, single point] | –
CCCn1c(SCC(=O)c2c[nH]c3ccccc23)nnc1-c1ccncc1 | inconclusive: 0.562 µM [activator, partial curve] | –
CCOC(=O)c1c(C)nc2c(c(SC)nn2-c2ccccc2)c1N | inconclusive: 14.1 µM [inhibitor, partial curve, poor fit] | –
COc1ccc(C(=O)NCc2cc(C)nc3ccccc23)cc1OC | inconclusive: 44.7 µM [inhibitor, single point] | –
O=C(Nc1ccncc1)c1cccc(F)c1 | – | inactive: -0.681%
CCCCC1=CC2=C(OC(C)=O)C(=O)C(C)(OC(=O)c3ccc(Cl)nc3)C(=O)C2=CO1 (configuration not stated) | inconclusive: 20 µM [inhibitor, partial curve] | –
COc1ccc(OC)c(NC(=O)c2cnc(Nc3ccc(C)c(Cl)c3)c3ccccc23)c1 | inconclusive: 22.4 µM [inhibitor, partial curve] | –
C#CCCCO/N=C1/C[C@@H](O)[C@@H](O)[C@@H]2[C@@H]3C(=O)N(C4CCCCC4)C(=O)[C@H]3CC[C@H]12 | inconclusive: 0.708 µM [inhibitor, partial curve] | –
O=C(NC(NCc1ccccn1)(C(F)(F)F)C(F)(F)F)c1ccco1 | – | inactive: -4.94%
Cc1cccc2sc(NNC(=O)c3cc(-c4cccs4)nc4ccccc34)nc12 | inconclusive: 2.24 µM [activator, full curve] | –
CCc1ccc(NC(=O)CCn2c(=O)oc3ccccc32)cc1 | inconclusive: 1.58 µM [inhibitor, full curve, poor fit] | –
NS(=O)(=O)c1cccc(NS(=O)(=O)c2ccc(/C=C/C(=O)OCC(=O)c3ccc(Br)cc3)cc2)c1 | inconclusive: 15.8 µM [inhibitor, partial curve] | –
O=S(=O)(c1ccc(F)cc1)N1CN(Cc2ccco2)c2nc3ccccc3nc21 | inconclusive: 28.2 µM [inhibitor, single point] | –
COc1cccc2sc(NC(=O)c3ccc(S(=O)(=O)N4CCC(C)CC4)cc3)nc12 | inconclusive: 17.8 µM [inhibitor, partial curve, poor fit] | –

SMILES | Potency | activity, negative = inhibition
Cc1ccc(-c2nn(-c3ccccc3)cc2/C=C/C(=O)Nc2nccs2)cc1 | inconclusive: 3.16 µM [inhibitor, full curve] | –
CCCCN(C(=O)c1ccc2c(c1)OCO2)c1ccccc1 | – | inactive: -12.2%
Cc1ccccc1Nc1c(N)c(=O)oc2ccccc12 | inconclusive: 44.7 µM [activator, single point] | –
CN1c2ccccc2C(C)(C)C12CCCC(=O)N2 (configuration not stated) | – | inactive: -1.7%
O=C(NCc1nc2ccccc2[nH]1)c1ccc([N+](=O)[O-])cc1 | inconclusive: 44.7 µM [inhibitor, single point] | –
COc1ccc(C)cc1NC(=O)Nc1cc(C(=O)NCc2ccc(C)cc2)ccc1N1CCCC1 | inconclusive: 3.55 µM [activator, full curve] | –
COc1ccc(-c2nc3sc(CCNC(=O)Cc4ccc(F)cc4)c(C)n3n2)cc1 | inconclusive: 2.51 µM [inhibitor, single point] | –
O=C(Oc1cccc(/C=N/Nc2nc(Nc3ccccc3)nc(N3CCOCC3)n2)c1)c1ccco1 | inconclusive: 39.8 µM [inhibitor, single point] | –
N#Cc1c(Nc2ccc(Cl)cc2)s[nH]c1=O | active: 20 µM | –
COc1ccc(Cn2c(C)nc3oc4cc(OC)ccc4c(=O)c3c2=O)cc1 | – | inactive: 3.7%
[O-][N+]1=c2ccc(Nc3ccccc3)cc2=NC12CCCCC2 | inconclusive: 8.91 µM [inhibitor, partial curve] | –
CN(C)c1ccc(C=Nc2ccc(N(C)C)cc2)cc1 | active: 28.2 µM | –
CN1/C(=C\C=C2\N=C(c3ccc(F)cc3)OC2=O)C(C)(C)c2ccccc21 | inconclusive: 22.4 µM [inhibitor, single point] | –
CCOc1ccc(NS(=O)(=O)c2ccc(NC(=S)NC(=O)CC(C)C)cc2)cc1 | inconclusive: 12.6 µM [inhibitor, single point] | –
O=C(NCc1ccccc1Cl)C1CCN(C(=O)N2CCOc3ccccc32)CC1 | – | inactive: -9.41%
CCC(CC)C(=O)Nc1nnc(S(=O)(=O)N2CCc3ccccc32)s1 | – | inactive: 1.85%
Cc1ccc(C2CC2C(=O)NNC(=S)Nc2cccc(C)c2)cc1 (configuration not stated) | inconclusive: 44.7 µM [activator, single point] | –
CCOC(=O)CNc1c(-c2ccc(OC)cc2)nc2ccc(Cl)cn12 | inconclusive: 8.91 µM [activator, partial curve, poor fit] | –
COc1nc(OC)nc(N2CCC(C(=O)NCC3CCCCC3)CC2)n1 | inconclusive: 11.2 µM [inhibitor, partial curve] | –
C/C(CC1CC2=C(CC1(C)C)C(C)(C)CCC2)=N\NC(N)=S (configuration not stated) | – | inactive: -2.12%
CC(=O)c1cc(C#N)c(SCC(=O)OC(C)C)nc1C | inconclusive: 11.2 µM [activator, partial curve] | –
